Measured values as given in PubChem BioAssay AID2147 (National Center for Advancing Translational Sciences (NCATS), 2009).
The whole screen tested about 230,000 compounds, of which about 3,600 (1.6%) were called active. The shares of active, inactive and inconclusive entries below differ from those in the screen. Calls come from the whole dose curve; as a rule, active = well fitted inhibition curve with a large enough effect (not every such curve was filed as active); inconclusive = small, poorly fitted or top-dose-only effect, or another doubt; inactive = no such curve, though single readings can be large or run the other way. Where the call is inconclusive, the potency comes from a doubtful curve fit.

target: Lysine-specific demethylase 4E (Homo sapiens) (UniProt B2RXH2); assay: qHTS Assay for Inhibitors of Human Jumonji Domain Containing 2E (JMJD2E); details: JMJD2E catalytic domain, FDH-coupled NADH fluorescence (FDH is formaldehyde dehydrogenase); series mostly up to 57.1 µM
Note: nearly all actives have a fitted effect of over 50% in size.
Potency is the fitted concentration of half-maximal effect; tags give direction and shape of the fitted curve.

UniProt B2RXH2, sequence (B2RXH2 whole entry, looked up, the tested form may be a part): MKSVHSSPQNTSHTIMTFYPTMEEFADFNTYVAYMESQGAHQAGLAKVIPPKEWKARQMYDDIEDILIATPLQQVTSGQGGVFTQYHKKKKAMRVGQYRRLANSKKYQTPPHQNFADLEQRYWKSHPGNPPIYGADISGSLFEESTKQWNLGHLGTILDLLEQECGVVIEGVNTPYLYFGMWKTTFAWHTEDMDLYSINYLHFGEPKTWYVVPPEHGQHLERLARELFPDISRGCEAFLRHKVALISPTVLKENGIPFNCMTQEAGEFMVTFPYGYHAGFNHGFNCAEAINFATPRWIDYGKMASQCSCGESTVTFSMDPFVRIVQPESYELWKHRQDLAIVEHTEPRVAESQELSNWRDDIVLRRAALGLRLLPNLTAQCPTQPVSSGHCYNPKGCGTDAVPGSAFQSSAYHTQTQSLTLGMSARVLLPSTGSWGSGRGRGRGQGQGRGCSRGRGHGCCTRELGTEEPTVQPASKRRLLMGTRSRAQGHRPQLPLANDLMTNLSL

Structure (SMILES) | Potency
Cc1cc(/C=C2\SC(=S)NC2=O)c(C)[nH]1 | inactive
COc1ccccc1CN1CCCC(C(=O)N2CCCCC2)C1 (stereo not given) | inconclusive: 39.8 µM [inhibitor, single point]
Cc1cc(N/N=C/c2ccco2)c2ccccc2n1 | inconclusive: 15.8 µM [inhibitor, partial curve]
COc1ccc(C(=O)N/N=C/c2ccc3cccc(OCc4ccccc4)c3n2)cc1 | inconclusive: 3.55 µM [inhibitor, partial curve]
COc1ccc(-c2ccc(C#N)c(SCC(=O)Nc3sc4c(c3C#N)CCC4)n2)cc1OC | inconclusive: 6.31 µM [inhibitor, partial curve]
CC(=O)Nc1ccc(S(=O)(=O)Nc2nc3cc4c(cc3nc2Cl)OCCO4)cc1 | inconclusive: 25.1 µM [inhibitor, partial curve]
O=C(CCN1C(=O)C2C3C=CC(C3)C2C1=O)N1CCN(c2ccccn2)CC1 (stereo not given) | inconclusive: 28.2 µM [inhibitor, partial curve]
CCOC(=O)c1c(-c2cccs2)csc1NC(=O)CN(CC)CC | inconclusive: 39.8 µM [inhibitor, single point]
Cc1ccc(SC/C(O)=C(\C#N)c2nc3ccccc3s2)cc1 | inconclusive: 39.8 µM [inhibitor, single point]
COc1ccc(CNC(=O)C(C)N(Cc2ccco2)C(=O)c2snc(C(N)=O)c2N)cc1 (stereo not given) | inconclusive: 14.1 µM [inhibitor, partial curve]
CCC(=O)N/N=C/c1ccc(-c2ccc(Cl)cc2)o1 | inconclusive: 25.1 µM [inhibitor, single point]
COc1cccc(C(=O)/C=C2\Sc3ccccc3N2C)c1 | inconclusive: 35.5 µM [inhibitor, single point]
Cc1noc(C)c1CSc1nc2ccccc2c(=O)n1-c1ccccc1 | inactive
O=C(N/N=C/c1ccco1)c1ccccc1OCc1ccc(Br)cc1 | inactive
O=C(Nc1ccc(-c2nc3cc(Cl)ccc3o2)cc1)C1CCCO1 (stereo not given) | inconclusive: 25.1 µM [inhibitor, partial curve]
CN(C)c1ccc(N2C(=O)CSC2=S)cc1 | active: 6.31 µM
COc1cccc(C2=CC(c3cccc(OC)c3OC)n3nnnc3N2)c1 (stereo not given) | inconclusive: 28.2 µM [inhibitor, single point]
COc1ccc(C(=O)c2oc3ccc(OC)cc3c2N)cc1 | inconclusive: 28.2 µM [inhibitor, single point]
Nc1cccc(C(=O)O)c1 | inconclusive: 28.2 µM [inhibitor, partial curve]
CCN(CC#CCC(O)(c1ccccc1)C1CCCC1)C(C)C (stereo not given) | inactive
O=C(/C=C/c1cn(CC(O)CN2CCCCC2)c2ccccc12)c1cccs1 (stereo not given) | inactive
CN(C)c1ccc(-c2nnn(Cc3ccccc3Br)n2)cc1 | inconclusive: 35.5 µM [inhibitor, single point]
CC(=O)Nc1cccc(OCC(=O)Nc2ccc(F)cc2)c1 | inactive
COc1ccc2[nH]c(=O)c(CN(CCO)S(=O)(=O)c3ccc4c(c3)OCCO4)cc2c1 | inconclusive: 28.2 µM [inhibitor, partial curve]

Structure (SMILES) | Potency
CCOC(=O)c1cnc(N)nc1C(F)(F)F | inconclusive: 39.8 µM [inhibitor, single point]
CCC(=O)Nc1cccc(-c2nc3ccccc3o2)c1 | inconclusive: 28.2 µM [inhibitor, single point]
COc1ccc(/C=C/C(=O)NCCSCc2ccco2)cc1OC | inconclusive: 25.1 µM [inhibitor, partial curve]
COc1ccc(N(CC(=O)NCc2ccco2)S(C)(=O)=O)c(OC)c1 | inconclusive: 5.01 µM [inhibitor, full curve, poor fit]
NS(=O)(=O)c1cc(C(=O)O)cc(N2CCCC2)c1Oc1ccccc1 | inconclusive: 12.6 µM [inhibitor, partial curve]
CCOC(=O)c1c(NC(=O)C(F)(OC)C(F)(F)F)sc2c1CCN(C)C2 (stereo not given) | inconclusive: 35.5 µM [inhibitor, partial curve]
FC(F)(F)c1nnc2c(Sc3ccccn3)nc3ccccc3n12 | inconclusive: 39.8 µM [inhibitor, single point]
c1ccc(Nc2nc(NCC3CCCO3)c3ccccc3n2)cc1 (stereo not given) | inconclusive: 31.6 µM [inhibitor, single point]
COc1cc([N+](=O)[O-])ccc1NC(=O)CCCOc1cccc(C)c1 | inconclusive: 39.8 µM [inhibitor, single point]
Cn1c(/C=N/O)nc2ccccc21 | inconclusive: 31.6 µM [inhibitor, partial curve]
CC1(C)Cc2c(C#N)c(N)n(-c3ccccc3)c(=S)c2CO1 | inconclusive: 14.1 µM [inhibitor, partial curve, poor fit]
COCCNC(=O)c1ccc(N2CCCCC2)c(NS(=O)(=O)c2ccc(C)cc2)c1 | inconclusive: 28.2 µM [inhibitor, single point]
CCOC(=O)c1c(NC(=O)C(C)N2CCN(C(=O)c3ccco3)CC2)sc2c1CCCC2 (stereo not given) | inconclusive: 31.6 µM [inhibitor, partial curve]
CCN(CC)CCCOc1ccc(C)cc1Br | inconclusive: 39.8 µM [inhibitor, single point]
O=C(O)c1cc(NN=Nc2cccc([N+](=O)[O-])c2)cc([N+](=O)[O-])c1 | inactive
COC(=O)c1ccc(CN2CCN(CC=C(C)C)C(CCO)C2)cc1 (stereo not given) | inactive
Cc1cccc(-n2ncc3c(NCc4cccs4)ncnc32)c1 | inconclusive: 35.5 µM [inhibitor, single point]
Cc1cc2nc(/N=C(\N)NC(=O)N3c4ccccc4Sc4ccccc43)nc(C)c2cc1C | inconclusive: 25.1 µM [inhibitor, single point]
Cc1cc(C(=O)NCc2ccccc2F)cs1 | inactive
O=C(Nc1ccc2c(c1)OCCO2)C1CCN(c2cnccn2)CC1 | inconclusive: 39.8 µM [inhibitor, single point]
COC(=O)C(NS(=O)(=O)c1ccc(C)cc1)c1ccccc1 (stereo not given) | inactive
O=c1c2cc(NC(=S)NC3CCCCC3)ccc2nc2n1CCCCC2 | inconclusive: 31.6 µM [inhibitor, single point]
COc1cccc(-n2nnc3c(=O)n(CC(=O)Nc4cc(C)on4)cnc32)c1 | inactive
COC(=O)c1nn(-c2cccc(C(F)(F)F)c2)c(=O)cc1Sc1ccccn1 | inactive

Structure (SMILES) | Potency
Cc1ccc(NC(=O)/C(=C/c2cccc(Br)c2)NC(=O)c2ccco2)cc1 | inconclusive: 39.8 µM [inhibitor, single point]
Cc1sc2nc(-c3ccccn3)[nH]c(=O)c2c1-c1ccccc1 | inactive
COc1cccc(Nc2nnc(SCC(=O)Nc3sccc3C(N)=O)s2)c1 | inconclusive: 35.5 µM [inhibitor, single point]
COc1ccc(C(=O)NCC(=O)N=Nc2c(O)n(Cc3ccccc3)c3ccccc23)cc1OC | inactive
Cc1sc2nc(CN3CCCC3)nc(N3CCC(C(N)=O)CC3)c2c1C | inconclusive: 28.2 µM [inhibitor, single point]
c1cncc(CNc2nc(-c3ccoc3)nc3ccccc23)c1 | inconclusive: 39.8 µM [inhibitor, single point]
N#C/C(=C\c1ccc(-c2ccc([N+](=O)[O-])cc2Br)o1)C(=O)N1CCN(c2ccccc2)CC1 | inactive
Cc1ccccc1C(=O)NCC(=O)NNC(=S)NC(=O)c1ccccc1C | inactive
C[C@@H]1CC=C[C@H]2[C@H]1C(=O)N(Cc1ccccc1)[C@H]2c1ccc(F)c(-c2ccc(N(C)C)cc2)c1 | inconclusive: 3.55 µM [inhibitor, partial curve]
COc1ccccc1NS(=O)(=O)c1cccc(C(=O)NN=C2CCCC2)c1 | inconclusive: 35.5 µM [inhibitor, single point]
Cc1ccc(-c2cc(=O)c3cc(C)ccc3[nH]2)cc1 | inconclusive: 28.2 µM [inhibitor, single point]
O=c1c2ccccc2nc2ccccn12 | inconclusive: 28.2 µM [inhibitor, partial curve]
CC/C(=N\NC(=O)c1c[nH]c2ccccc12)c1cccs1 | inactive
Cc1sc2nc3c4ccccc4c(NCc4ccco4)nn3c(=O)c2c1C | inconclusive: 7.94 µM [inhibitor, partial curve]
COc1ccc2ccccc2c1/C=N/NC(=S)Nc1cc(S(=O)(=O)N2CCOCC2)ccc1N1CCOCC1 | inconclusive: 25.1 µM [inhibitor, partial curve]
COc1ccc(N2C(=O)[C@@H]3[C@H](C2=O)[C@H]2c4ccccc4C=CN2[C@@H]3C(C)=O)cc1 | inconclusive: 20 µM [inhibitor, single point]
COCc1cc(C)nc2sc3c(=O)n(-c4cccc5ccccc45)nnc3c12 | inconclusive: 2.82 µM [inhibitor, full curve]
CCOC(=O)C1CCN(c2c(NCc3ccc(C(=O)NCCC(C)C)cc3)c(=O)c2=O)CC1 | inactive
COCCCNc1nc2ccccc2nc1NS(=O)(=O)c1cccs1 | inconclusive: 25.1 µM [inhibitor, single point]
CN(C)CCCN1c2ccccc2Sc2ccccc21 | inconclusive: 39.8 µM [inhibitor, single point]
CCCS(=O)(=O)c1csc(C(=O)OC)c1N | inconclusive: 35.5 µM [inhibitor, partial curve]
CC(C)OCCCNC(=O)c1ccccc1Oc1ccccc1 | inconclusive: 39.8 µM [inhibitor, single point]
